According to paper PMC9911399, “Two distinct binding modes provide the RNA-binding protein RbFox with extraordinary sequence specificity”:
Positions count from the first letter of the chain named. Some of the results follow.

B1: AACACAU (DNA:RNA)
RNA: GGGAGACCGGAAUUCAGAUUGUCCAACACAUUUAAAUCCCGUCGUAGCCACCA
DNA 1: CAATCTGAATTCCGGTCTCCC
DNA 2: TGGTGGCTACGACGGGATT
B2: UCUGAGC (DNA:RNA)
RNA: GGGAGACCGGAAUUCAGAUUGUCCUCUGAGCUUAAAUCCCGUCGUAGCCACCA
DNA 1: CAATCTGAATTCCGGTCTCCC
DNA 2: TGGTGGCTACGACGGGATT
B3: ACCCACA (DNA:RNA)
RNA: B1 RNA with A26C, A28C, C29A, A30C, U31A
DNA 1: CAATCTGAATTCCGGTCTCCC
DNA 2: TGGTGGCTACGACGGGATT
B4: GUACACC (DNA:RNA)
RNA: B2 RNA with U25G, C26U, U27A, G28C, G30C
DNA 1: CAATCTGAATTCCGGTCTCCC
DNA 2: TGGTGGCTACGACGGGATT
B5: GGCUUGG (DNA:RNA)
RNA: B1 RNA with A25G, A26G, A28U, C29U, A30G, U31G
DNA 1: CAATCTGAATTCCGGTCTCCC
DNA 2: TGGTGGCTACGACGGGATT
B6: CGGUGAU (DNA:RNA)
RNA: B1 RNA with A25C, A26G, C27G, A28U, C29G
DNA 1: CAATCTGAATTCCGGTCTCCC
DNA 2: TGGTGGCTACGACGGGATT
B7: UUUUCCU (DNA:RNA)
RNA: B1 RNA with A25U, A26U, C27U, A28U, A30C
DNA 1: CAATCTGAATTCCGGTCTCCC
DNA 2: TGGTGGCTACGACGGGATT
B8: AACGUCG (DNA:RNA)
RNA: B1 RNA with A28G, C29U, A30C, U31G
DNA 1: CAATCTGAATTCCGGTCTCCC
DNA 2: TGGTGGCTACGACGGGATT
B9: CAGCUUA (DNA:RNA)
RNA: B1 RNA with A25C, C27G, A28C, C29U, A30U, U31A
DNA 1: CAATCTGAATTCCGGTCTCCC
DNA 2: TGGTGGCTACGACGGGATT
B10: GGAAAAG (DNA:RNA)
RNA: B1 RNA with A25G, A26G, C27A, C29A, U31G
DNA 1: CAATCTGAATTCCGGTCTCCC
DNA 2: TGGTGGCTACGACGGGATT
B11: CAUCAGU (DNA:RNA)
RNA: B2 RNA with U25C, C26A, G28C, C31U
DNA 1: CAATCTGAATTCCGGTCTCCC
DNA 2: TGGTGGCTACGACGGGATT
B12: GUUACCG (DNA:RNA)
RNA: B1 RNA with A25G, A26U, C27U, A30C, U31G
DNA 1: CAATCTGAATTCCGGTCTCCC
DNA 2: TGGTGGCTACGACGGGATT
B13: UUAACAU (DNA:RNA)
RNA: B1 RNA with A25U, A26U, C27A
DNA 1: CAATCTGAATTCCGGTCTCCC
DNA 2: TGGTGGCTACGACGGGATT
B14: CUUGCAG (DNA:RNA)
RNA: B1 RNA with A25C, A26U, C27U, A28G, U31G
DNA 1: CAATCTGAATTCCGGTCTCCC
DNA 2: TGGTGGCTACGACGGGATT
B15: CCUUCUC (DNA:RNA)
RNA: B2 RNA with U25C, G28U, A29C, G30U
DNA 1: CAATCTGAATTCCGGTCTCCC
DNA 2: TGGTGGCTACGACGGGATT
B16: AAGCGUG (DNA:RNA)
RNA: B1 RNA with C27G, A28C, C29G, A30U, U31G
DNA 1: CAATCTGAATTCCGGTCTCCC
DNA 2: TGGTGGCTACGACGGGATT
B17: ACAGCCC (DNA:RNA)
RNA: B2 RNA with U25A, U27A, A29C, G30C
DNA 1: CAATCTGAATTCCGGTCTCCC
DNA 2: TGGTGGCTACGACGGGATT
B18: UGUGGUU (DNA:RNA)
RNA: B2 RNA with C26G, A29G, G30U, C31U
DNA 1: CAATCTGAATTCCGGTCTCCC
DNA 2: TGGTGGCTACGACGGGATT
B19: AGCUAAA (DNA:RNA)
RNA: B1 RNA with A26G, A28U, C29A, U31A
DNA 1: CAATCTGAATTCCGGTCTCCC
DNA 2: TGGTGGCTACGACGGGATT
B20: UGGAAGA (DNA:RNA)
RNA: B2 RNA with C26G, U27G, G28A, C31A
DNA 1: CAATCTGAATTCCGGTCTCCC
DNA 2: TGGTGGCTACGACGGGATT

What follows are binders tested against T1, RBFOX1 RRM (Homo sapiens, UniProt Q9NWB1 109-208) (assay: EMSA; HiTS-Eq, 1 nM pool, 10 min; buffer printed only for the single-RNA assays: 10 mM Tris pH 7.5, 150 mM NaCl, 3.4 mM EDTA, 0.001% NP-40, 30 C). Conditions: tags: His6 N-terminal (pET28a); label: 5' 32P.
T1 sequence: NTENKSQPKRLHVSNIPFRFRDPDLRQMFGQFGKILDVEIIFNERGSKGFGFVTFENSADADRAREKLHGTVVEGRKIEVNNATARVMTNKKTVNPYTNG
Summary of the method: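 Purified RbFox RRM, wild type or mutant, was incubated for 10 min in 50 µL with 1 nM of a 5′-radiolabelled RNA pool carrying 7 randomized nucleotides, whose flanks were annealed to DNA oligonucleotides, over a series of increasing protein concentrations. Unbound RNA was resolved on 8% native PAGE, cut out, reverse-transcribed, barcoded by PCR and sequenced on an Illumina HiSeq 2500. Relative association constants were derived from changes in read counts for each RNA species versus the control reaction and normalised to the cognate motif.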

Binder | binding signal
B1 | 0.00186 KA relative to UGCAUGU
B2 | 0.0172 KA relative to UGCAUGU
B3 | 0.000933 KA relative to UGCAUGU
B4 | 0.00405 KA relative to UGCAUGU
B5 | 0.0242 KA relative to UGCAUGU
B6 | 0.0121 KA relative to UGCAUGU
B7 | 0.0103 KA relative to UGCAUGU
B8 | 0.00665 KA relative to UGCAUGU
B9 | 0.00217 KA relative to UGCAUGU
B10 | 0.0116 KA relative to UGCAUGU
B11 | 0.00703 KA relative to UGCAUGU
B12 | 0.0115 KA relative to UGCAUGU
B13 | 0.000663 KA relative to UGCAUGU
B14 | 0.0118 KA relative to UGCAUGU
B15 | 0.00669 KA relative to UGCAUGU
B16 | 0.0169 KA relative to UGCAUGU
B17 | 0.0021 KA relative to UGCAUGU
B18 | 0.0316 KA relative to UGCAUGU
B19 | 0.00178 KA relative to UGCAUGU
B20 | 0.0212 KA relative to UGCAUGU
